Experimental data reported in PubChem BioAssay AID361 (National Center for Advancing Translational Sciences (NCATS), 2006).
Hit rate of the full screen: of about 51,000 compounds, about 600 (1.2%) were called active. The inconclusive results got no clear call from the source; some entries with a clear call stand among them for comparison. No stated cut-off is given here; in the data, active means potency below about 11 µM; inconclusive means mostly about 12 µM to 25 µM; inactive means weaker than that;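 the screen sought inhibitors and activators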. No potency is given beside an inconclusive call; the fits are too rough.
Potency means the concentration at half of the fitted maximal effect.

What follows are compounds tested on pyruvate kinase (Bacillus stearothermophilus) (assay: Pyruvate Kinase). Conditions: purified pyruvate kinase, luminescence ATP production; ribose 5-phosphate activator present at AC10.
Summary of the method: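 Activity measured as ATP generation from ADP and PEP using luciferase-coupled luminescence; 10 nM enzyme, 2 h, room temperature, with sub-maximal ribose 5-phosphate to reveal potentiators.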
In the case of `Cn1c(NCC(O)c2ccccc2)nc2c1c(=O)n(Cc1ccc(Cl)c(Cl)c1)c(=O)n2C` (stereo unspecified), the Potency is reported as inconclusive [increasing].
For `O=C(CSc1nnnn1-c1cccc2c1CCCC2)N1CCOCC1`, the Potency was active: 10.6 µM.
`O=C(CCn1nnc(-c2cccs2)n1)N1CCc2ccccc2C1` was tested, and the Potency was inconclusive [increasing].
In the case of `CCN(CC)CCNC(=O)c1ccc2c(=O)n(CCc3ccccc3)c(=O)[nH]c2c1`, the Potency is reported as inactive: > 57 µM.
In the case of `Cc1cc2cc(C)c3nnc(SCC(=O)NCc4ccco4)n3c2cc1C`, the Potency is reported as inconclusive [decreasing].
`OCc1nc2ccccc2n1CCCOc1ccc(Br)cc1` was tested, and the Potency was inconclusive [decreasing].
With `COc1ccccc1C(c1nnnn1C(C)(C)C)N1CCCCCC1` (stereo unspecified) the Potency was inconclusive [increasing].
For `CCCc1cc(=O)n2[nH]c(C)cc2n1`, the Potency was inactive: > 57 µM.
For `O=C1CN(C(=O)c2ccc(Br)o2)C(c2ccc(F)cc2)c2cc(F)ccc2N1` (stereo unspecified), the Potency was inactive: > 57 µM.
With `CCn1c(C)nc2cc(C(=O)OCCC(F)(F)F)ccc21` the Potency was inactive: > 57 µM.
`N#CC1=C(N)N(c2ccccc2)C2=C(C(=O)CCC2)C1c1cccs1` (stereo unspecified) was tested, and the Potency was inactive: > 57 µM.
For `O=C(c1ccc(Cl)c(Cl)c1)N(Cc1ccco1)c1ccc(O)cc1`, the Potency was inconclusive [increasing].
`C=CCn1c(CCC(=O)O)ccc1-c1ccc(OC)cc1` was tested, and the Potency was inactive: > 57 µM.
For `COc1ccccc1N1C(=O)CC(Sc2nccc(C)n2)C1=O` (stereo unspecified), the Potency was inconclusive [increasing].
In the case of `COc1ccc2[nH]c3ccc(OC)cc3c2c1`, the Potency is reported as inconclusive [decreasing].
For `CN(CC(=O)N1CCc2ccccc21)S(=O)(=O)c1ccc(Cl)cc1`, the Potency was inconclusive [increasing].
With `COc1ccc(S(=O)(=O)Nc2ccc3c(c2)OCO3)cc1OC` the Potency was inactive: > 57 µM.
In the case of `CC(=O)Nc1ccc(NC(=O)CNS(=O)(=O)c2ccc(C)cc2)cc1`, the Potency is reported as inconclusive [increasing].
With `CCN1C(=O)/C(=C2/Sc3ccc(OC)cc3N2C)SC1=Nc1cccc(O)c1` the Potency was inactive: > 57 µM.
For `O=C(Nc1ccc(-c2nc3ncccc3o2)cc1)c1ccco1`, the Potency was inconclusive [decreasing].
With `Cc1ccc(-c2nnc3n2N=C(c2ccccc2Br)CS3)cc1` the Potency was inconclusive [increasing].
`CCOc1ccccc1C1CC(=O)Nc2cc3c(cc21)OCCO3` (stereo unspecified) was tested, and the Potency was inconclusive [increasing].
`COc1ccc(OCC(=O)N2CCN(C(=O)c3cccc4ccccc34)CC2)cc1` was tested, and the Potency was inconclusive [increasing].
With `CCOC(=O)c1c(NC(=O)c2ccc(S(=O)(=O)N3CCOCC3)cc2)sc2c1CCN(C)C2` the Potency was inactive: > 57 µM.
In the case of `O=C(CCn1nc(-c2ccc(Cl)cc2)ccc1=O)NCCCN1CCCCCC1`, the Potency is reported as inconclusive [decreasing].
For `Cc1sc2nc(SCC(=O)NCc3ccco3)n(-c3ccccc3)c(=O)c2c1C`, the Potency was inactive: > 57 µM.
In the case of `Fc1ccc2nc(Nc3nc4c(s3)CCCC4)sc2c1`, the Potency is reported as inconclusive [decreasing].
For `Cc1ccc(S(=O)(=O)N2CCCC2C(=O)n2nc(C)cc2C)cc1` (stereo unspecified), the Potency was inconclusive [increasing].
For `CCc1nc2n[nH]c(N)c2c2c1CCCC2`, the Potency was inactive: > 25.6 µM.
With `Cn1c(C(=O)NCC2CCCO2)cc2c(=O)[nH]c3ccccc3c21` (stereo unspecified) the Potency was inconclusive [decreasing].
`C=C(C)Cn1c(SCC(=O)NCc2ccco2)nc2sc3c(c2c1=O)CCC3` was tested, and the Potency was inconclusive [increasing].
`Cc1ccc(C(=O)Nc2ccc(S(=O)(=O)N3CCc4ccccc43)cc2)o1` was tested, and the Potency was inconclusive [increasing].
For `COc1ccc(OC)c2[nH]c(=O)c(CCNC(=O)COc3ccccc3)cc12`, the Potency was inconclusive [decreasing].
`CN(C)c1ccc(N/C=C/C(=O)c2ccc(F)cc2)cc1` was tested, and the Potency was inconclusive [decreasing].
`COc1ccc2c(c1)sc1nc(-c3ccccc3)cn12` was tested, and the Potency was active: 0.0552 µM.
For `O=C(Nc1ccc2nc(-c3ccco3)[nH]c2c1)c1cccs1`, the Potency was active: 10.1 µM.
